The source of these data is the supplement of paper PMC4604168 (melanoma cell lines).

Some of the results follow. Repeats are few or missing, and single values can be far off.
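Also: cell number obtained by counting DAPI-stained nuclei in high-throughput microscope images with image analysis software, screen run in 1,536-well plates.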

For one test, the system named is A101D. The test is described as follows: cell count relative to DMSO control; melanoma cells; higher = more viable cells. The conditions noted are these: library dose: low library concentration; 72 h.
`O=C(/C=C/c1cccnc1)NCCCCC1CCN(C(=O)c2ccccc2)CC1` + CN1CCN(c2ccc3nc(-c4c(N)c5c(F)cccc5[nH]c4=O)[nH]c3c2)CC1 [Dovitinib] (first compound 0.01 µM, partner dose 0.1 µM) had a cell count of 86.9%.
Still for that read-out and setting: to `Cc1ccc(Nc2nccc(N(C)c3ccc4c(C)n(C)nc4c3)n2)cc1S(N)(=O)=O` [Pazopanib] + Cn1cnc2c(F)c(Nc3ccc(Br)cc3Cl)c(C(=O)NOCCO)cc21 [selumetinib] (first compound 0.4 µM, partner dose 0.015 µM) belongs 88.8%; to `Cc1ccc(Nc2nccc(N(C)c3ccc4c(C)n(C)nc4c3)n2)cc1S(N)(=O)=O` [Pazopanib] + Nc1ccn([C@@H]2O[C@H](CO)[C@@H](O)C2(F)F)c(=O)n1 [gemcitabine] (first compound 0.4 µM, partner dose 0.0004 µM), 93.9%.
On the same count and under the same terms, to `Cc1ccc(Nc2nccc(N(C)c3ccc4c(C)n(C)nc4c3)n2)cc1S(N)(=O)=O` [Pazopanib] + O=C(O)c1ccc2c(c1)nc(Nc1cccc(Cl)c1)c1ccncc12 [CX4945] (first compound 0.4 µM, partner dose 0.4 µM) belongs 102%.
In the case of `Cc1ccc(Nc2nccc(N(C)c3ccc4c(C)n(C)nc4c3)n2)cc1S(N)(=O)=O` [Pazopanib] + CC(C)(C)c1cnc(CSc2cnc(NC(=O)C3CCNCC3)s2)o1 [SNS-032] (first compound 0.4 µM, partner dose 0.01 µM), the cell count amounted to 101%.
Still for that read-out and setting: to `Cc1ccc(Nc2nccc(N(C)c3ccc4c(C)n(C)nc4c3)n2)cc1S(N)(=O)=O` [Pazopanib] + Cn1sc(=O)n(Cc2ccccc2)c1=O [TDZD-8] (first compound 0.4 µM, partner dose 0.4 µM) belongs 93.5%; to `Cc1ccc(Nc2nccc(N(C)c3ccc4c(C)n(C)nc4c3)n2)cc1S(N)(=O)=O` [Pazopanib] + C[C@@H](Oc1cc(-c2cnn(C3CCNCC3)c2)cnc1N)c1c(Cl)ccc(F)c1Cl [Crizotinib] (first compound 0.4 µM, partner dose 0.2 µM), 97%; to `CC1(C)CCC(c2ccc(Cl)cc2)=C(CN2CCN(c3ccc(C(=O)NS(=O)(=O)c4ccc(N[C@H](CCN5CCOCC5)CSc5ccccc5)c(S(=O)(=O)C(F)(F)F)c4)cc3)CC2)C1` + NC1(c2ccc(-c3nc4ccn5c(=O)[nH]nc5c4cc3-c3ccccc3)cc2)CCC1 [MK2206] (first compound 0.4 µM, partner dose 0.4 µM), 38.5%.
The same measure, in the same setting: to `Cc1ccc(Nc2nccc(N(C)c3ccc4c(C)n(C)nc4c3)n2)cc1S(N)(=O)=O` [Pazopanib] + NCC(=O)Nc1ccc(-n2nc(C(F)(F)F)cc2-c2ccc3c(ccc4ccccc43)c2)cc1 [OSU03012] (first compound 0.4 µM, partner dose 1 µM) belongs 110%.
The same measure, in the same setting: to `Cc1ccc(Nc2nccc(N(C)c3ccc4c(C)n(C)nc4c3)n2)cc1S(N)(=O)=O` [Pazopanib] + Cn1c(=O)n(-c2ccc(C(C)(C)C#N)cc2)c2c3cc(-c4cnc5ccccc5c4)ccc3ncc21 [NVP-BEZ235] (first compound 0.4 µM, partner dose 0.004 µM) belongs 87.8%; to `Cc1ccc(Nc2nccc(N(C)c3ccc4c(C)n(C)nc4c3)n2)cc1S(N)(=O)=O` [Pazopanib] + Cn1nnc2c(C(N)=O)ncn2c1=O [temozolomide] (first compound 0.4 µM, partner dose 2 µM), 99.2%; to `O=C(/C=C/c1cccnc1)NCCCCC1CCN(C(=O)c2ccccc2)CC1` + Cc1ccc(NC(=O)c2cccc(N(C)C)c2)cc1NC(=O)c1ccc(O)cc1 [ZM336372] (first compound 0.01 µM, partner dose 2 µM), 86.4%.

The test system of another test is A2058. Described as above. The conditions noted are these: library dose: low library concentration; 72 h.
`CC1(C)CCC(c2ccc(Cl)cc2)=C(CN2CCN(c3ccc(C(=O)NS(=O)(=O)c4ccc(N[C@H](CCN5CCOCC5)CSc5ccccc5)c(S(=O)(=O)C(F)(F)F)c4)cc3)CC2)C1` + CC1(C)NC(=O)N(c2ccc([N+](=O)[O-])c(C(F)(F)F)c2)C1=O [nilutamide] (first compound 0.4 µM, partner dose 1 µM) gave a cell count of 91%.
For the compound `CC1(C)CCC(c2ccc(Cl)cc2)=C(CN2CCN(c3ccc(C(=O)NS(=O)(=O)c4ccc(N[C@H](CCN5CCOCC5)CSc5ccccc5)c(S(=O)(=O)C(F)(F)F)c4)cc3)CC2)C1` + Nc1ncn([C@H]2C[C@H](O)[C@@H](CO)O2)c(=O)n1 [decitabine] (first compound 0.4 µM, partner dose 0.1 µM), the cell count was determined as 93.2%.
`CC1(C)CCC(c2ccc(Cl)cc2)=C(CN2CCN(c3ccc(C(=O)NS(=O)(=O)c4ccc(N[C@H](CCN5CCOCC5)CSc5ccccc5)c(S(=O)(=O)C(F)(F)F)c4)cc3)CC2)C1` + CO[C@H]1C[C@@H]2CC[C@@H](C)[C@@](O)(O2)C(=O)C(=O)N2CCCC[C@H]2C(=O)O[C@H]([C@H](C)C[C@@H]2CC[C@@H](OCCO)[C@H](OC)C2)CC(=O)[C@H](C)/C=C(\C)[C@@H](O)[C@@H](OC)C(=O)[C@H](C)C[C@H](C)/C=C/C=C/C=C/1C [everolimus] (first compound 0.4 µM, partner dose 0.02 µM) registered a cell count of 63%.
Regarding `O=C(/C=C/c1cccnc1)NCCCCC1CCN(C(=O)c2ccccc2)CC1` + Nc1cccc2c1CN(C1CCC(=O)NC1=O)C2=O [lenalidomide] (first compound 0.01 µM, partner dose 1 µM), the cell count turned out to be 93.6%.
Same read-out and setting: the result for `Cc1ccc(Nc2nccc(N(C)c3ccc4c(C)n(C)nc4c3)n2)cc1S(N)(=O)=O` [Pazopanib] + OCCn1cc(-c2cnc3nnn(Cc4ccc5ncccc5c4)c3n2)cn1 [PF04217903] (first compound 0.4 µM, partner dose 1 µM) reads 104%.
On to `O=C(/C=C/c1cccnc1)NCCCCC1CCN(C(=O)c2ccccc2)CC1` + C[C@@H]1CCN(C(=O)CC#N)C[C@@H]1N(C)c1ncnc2[nH]ccc12 [CP690550] (first compound 0.01 µM, partner dose 1 µM), for which the cell count is 83.5%.
Still for that read-out and setting: the result for `Cc1ccc(Nc2nccc(N(C)c3ccc4c(C)n(C)nc4c3)n2)cc1S(N)(=O)=O` [Pazopanib] + C#Cc1cccc(Nc2ncnc3cc(OCCOC)c(OCCOC)cc23)c1 [erlotinib] (first compound 0.4 µM, partner dose 0.8 µM) reads 82.2%.
Same read-out and setting: the result for `O=C(/C=C/c1cccnc1)NCCCCC1CCN(C(=O)c2ccccc2)CC1` + O=C(O)c1ccc(-c2c[nH]c3ncc(-c4ccccc4)cc23)cc1C1CCCC1 [GSK650394] (first compound 0.01 µM, partner dose 0.16 µM) reads 99.1%; that for `O=C(/C=C/c1cccnc1)NCCCCC1CCN(C(=O)c2ccccc2)CC1` + COc1ccc(Cl)c(Nc2nc3ccccc3nc2NS(=O)(=O)c2cccc(NC(=O)C(C)(C)N)c2)c1 [XL147] (first compound 0.01 µM, partner dose 0.8 µM), 107%.
`O=C(/C=C/c1cccnc1)NCCCCC1CCN(C(=O)c2ccccc2)CC1` + C=CCNC1=C2C[C@@H](C)C[C@H](OC)[C@H](O)[C@@H](C)/C=C(\C)[C@H](OC(N)=O)[C@@H](OC)/C=C\C=C(/C)C(=O)NC(=CC1=O)C2=O [Tanespimycin] (first compound 0.01 µM, partner dose 0.002 µM) had a cell count of 99.9%.
On the same count and under the same terms, the result for `Cc1ccc(Nc2nccc(N(C)c3ccc4c(C)n(C)nc4c3)n2)cc1S(N)(=O)=O` [Pazopanib] + Nc1ncn([C@H]2C[C@H](O)[C@@H](CO)O2)c(=O)n1 [decitabine] (first compound 0.4 µM, partner dose 0.1 µM) reads 99.9%; that for `CC1(C)CCC(c2ccc(Cl)cc2)=C(CN2CCN(c3ccc(C(=O)NS(=O)(=O)c4ccc(N[C@H](CCN5CCOCC5)CSc5ccccc5)c(S(=O)(=O)C(F)(F)F)c4)cc3)CC2)C1` + C=C(c1ccc(C(=O)O)cc1)c1cc2c(cc1C)C(C)(C)CCC2(C)C [Bexarotene] (first compound 0.4 µM, partner dose 2 µM), 95%; that for `O=C(/C=C/c1cccnc1)NCCCCC1CCN(C(=O)c2ccccc2)CC1` + C[C@@H](Oc1cc(-c2cnn(C3CCNCC3)c2)cnc1N)c1c(Cl)ccc(F)c1Cl [Crizotinib] (first compound 0.01 µM, partner dose 0.2 µM), 111%.
On to `CC1(C)CCC(c2ccc(Cl)cc2)=C(CN2CCN(c3ccc(C(=O)NS(=O)(=O)c4ccc(N[C@H](CCN5CCOCC5)CSc5ccccc5)c(S(=O)(=O)C(F)(F)F)c4)cc3)CC2)C1` + CCCCCCCCc1ccc(CCC(N)(CO)CO)cc1 [fingolimod] (first compound 0.4 µM, partner dose 2 µM), for which the cell count is 84.2%.
`CC1(C)CCC(c2ccc(Cl)cc2)=C(CN2CCN(c3ccc(C(=O)NS(=O)(=O)c4ccc(N[C@H](CCN5CCOCC5)CSc5ccccc5)c(S(=O)(=O)C(F)(F)F)c4)cc3)CC2)C1` + Cn1cncc1[C@@](N)(c1ccc(Cl)cc1)c1ccc2c(c1)c(-c1cccc(Cl)c1)cc(=O)n2C [tipifarnib] (first compound 0.4 µM, partner dose 0.01 µM) yielded a cell count of 85.5%.
`O=C(/C=C/c1cccnc1)NCCCCC1CCN(C(=O)c2ccccc2)CC1` + Cn1sc(=O)n(Cc2ccccc2)c1=O [TDZD-8] (first compound 0.01 µM, partner dose 0.4 µM): the cell count was found to be 105%.
`Cc1ccc(Nc2nccc(N(C)c3ccc4c(C)n(C)nc4c3)n2)cc1S(N)(=O)=O` [Pazopanib] + CS(=O)(=O)c1ccc(C(=O)Nc2ccc(Cl)c(-c3ccccn3)c2)c(Cl)c1 [vismodegib] (first compound 0.4 µM, partner dose 1 µM) gave a cell count of 93.9%.
